These results are taken from patent US12551573B2, “Compositions and methods for the targeting of PCSK9” (Scribe Therapeutics Inc., priority 2022, dated 2026).

B1: DOMAIN_26577 (protein, listed as Geotrypetes seraphini)
chain: QQVPVTFEDVAVSFSQEEWKYLDEAQKNLYWEVMKENYETLISLDSEVHQEEEREKNQEEYPMLWGLISRQSRKNHEKVYW
B2: DOMAIN_26853 (protein, listed as Mus musculus)
chain: SVEMLSFRDVAIDFSAGELECLEPAQWDLYRDVMLENFSHLVFLGFSFSKPLLVRFLEKNQELRNVKRKAATVPRGKKPYK
B3: DOMAIN_26660 (protein, listed as Phasianus colchicus)
chain: CQEPVSFAQVAVYFSREEWALLDPAQRALYRDVMLETYQCVASLAPLPAPKPVLISQLEGEEDPCISDVRSPEAVPGDLSP
B4: DOMAIN_26795 (protein)
chain: SQEPVSFAEVAVYFSREEWALLDPAQRALYRDVMLETYQCVASLAPLPAPKPMLISLLEGGEEPWIPDVRSPEAVPGDLSP
modifications: Meleagris gallopavo
B5: DOMAIN_27563 (protein)
chain: QPQGTVTFKDVEVTFSQDEWGLLDASQRNLYRDVMLENYGNMASVVGPFTKPALISWLEAREPWGLNVQGVQFKGNPGAAP
modifications: Muntiacus muntjak
B6: DOMAIN_26423 (protein, listed as Pelodiscus sinensis)
chain: AQVPVTFEEVAVYFTAGQGALLGPNQRALYRDVMQENYETVASLGFSIPKPDLITQLERGEEPWVPDLQPSKEMEFLRGTC
B7: DOMAIN_27639 (protein, listed as Macaca fascicularis)
chain: QTDLVTFDSVAVEFTQEEWTLLDPTQRNLYRDVMLENYKNLSSVGYQLFKPSLISWLEEEEELSTLPRVLQEWKMCLKTKG
B8: DOMAIN_26634 (protein, listed as Gopherus agassizii)
chain: FQGPVTFEEVAVYFTSEEWALLDPTQRALYWDVMQENYENVTSLGFPVSKPHIISQLEQGAEPWVPDLQGSEEILSKHQRI
B9: DOMAIN_26780 (protein)
chain: EEPVSFAEVAVYFSREEWALLDPAQRALYRDVMLETYQCVASMESLLPAPKPIVISLLEGGEDLWIPDMQSPEDVAGDLRP
modifications: Meleagris gallopavo
B10: DOMAIN_26439 (protein, listed as Pelodiscus sinensis)
chain: SEMRVTFEEVAVYFTKGQGALLDARQKALYRDVMLENYEAVTSLGFPVPKPELIARLERGEEPWVPDLQAGEEREILRGTR
B11: DOMAIN_26852 (protein, listed as Mus musculus)
chain: MNAVTYEDVHVNFTQEEWALLDPSQKKLYKDVMVETYRNLNAIGFNWEAHNIEEYCQSSRRHRRCERSQSAEKPSEYTQCG
B12: DOMAIN_26803 (protein)
chain: GKMPVTFEDVAVYFSPEEWAELAGWQRRLYREVMLENYQAVASLGWPAVKPEIICKMEREEMPCMPAPPRARWRHRTPVPA
modifications: Aquila chrysaetos
B13: DOMAIN_27705 (protein, listed as Phascolarctos cinereus)
chain: AQDALTFQDVAVDFTWEEWGQLDPAQQNLYRDVMLENYQNLISLGFPVSKPEVISQLEQGEVPWALKRAVAEGSCPDWEAR
B14: DOMAIN_27690 (protein, listed as Myotis lucifugus)
chain: AAQELVTFQDVFVDFSQEELNSLSAAQRRLHREVTLENYRSLVSLGYRFPKPDIIAQLEEEESRAMEEDGDTKTGPDWETG
B15: DOMAIN_26469 (protein, listed as Pelodiscus sinensis)
chain: VTFEEVAVYFSAEEWALLGPAQRALYREVMRENYEAVTSLAWAGLPISKPDLISCMERGEEPWVAHLQSQRRRELPRGRNS
B16: DOMAIN_27521 (protein, listed as Suricata suricatta)
chain: LLTFEDVAVYFTEEEWALLDPNQKILYNDVMQENYENVICLGLKLKNDTGNDQPTSVSTLEIQASGCKVLRKARIKVAQKT
B17: DOMAIN_27642 (protein)
chain: LLTFEDVAVSFSEEEWKLLDPAQKILYNDVMQENYETVISLGLKLKNDTGNDQPISVSALEIQASGRKVLRKARMKVAQKT
modifications: Puma concolor
B18: DOMAIN_26783 (protein)
chain: EPVSFAEVAVYFSREEWALLDPAQRALYRDVMLETYQCVASLVTETPVPAPKPVLISLLEGRKEPWIPDMRSPEAMPGDLS
modifications: Meleagris gallopavo
B19: DOMAIN_26430 (protein, listed as Pelodiscus sinensis)
chain: VAGPVTFEEVAVYFSEEEWALLDPGQRALYRDVMQENYEAVSWLGFPVSKPGETSWLERAGKLQEWESRSHANTARPRGNQ
B20: DOMAIN_27581 (protein, listed as Canis lupus)
chain: LLTFEDVAVFFSEEEWKLLNPTQKILYSDVMQENYETVISLGLKLKNDTGNDQPISLSTLELQASGCKVLRKARVKVAQKT
B21: DOMAIN_26679 (protein, listed as Paroedura picta)
chain: MLSPVTFEDVAVYFTEGQGALLDPNQRALYREVMMENYENMASLGFLFIKPALISQLEQGEELWAPESQGLDAAEISDTSD
B22: DOMAIN_26636 (protein, listed as Gopherus agassizii)
chain: FPMPVTFEEVAVYFTQGQGALLDPAQRALYRDVMQENYKMVTSLAGFPIPKPDLIAQLERGEEPWVPDLQADEERESPRGT
B23: DOMAIN_27498 (protein, listed as Sus scrofa)
chain: QPQEALTFKDVEVTFSQDEWGWLDASQRNLYRDVMLENYGNIASLMGPFTKPALISWLETREPWVLNVQGAQPEGNPGADV
B24: DOMAIN_27285 (protein, listed as Peromyscus maniculatus)
chain: YQEALTFQDVKVTFSQEEWGCLDSAQRNLYRDVMLENYGNVVSVVGSSPKPALISWLEARKPSTVNICKVQPKRDSGTAPE
B25: DOMAIN_26800 (protein)
chain: SQEPVSFADVAVYFSREEWALLDPAQRVLYRDVMLETYECIASLACPAPKPAVISMLEGEEDPWIPEDMAGDLGPGEPVRE
modifications: Meleagris gallopavo
B26: DOMAIN_26340 (protein, listed as Pelodiscus sinensis)
chain: AQGLVPFEEVAVYFTRTEWALLDPAQRALYRAVMQENYENVTSLGFAVSKPDVISQLERGEEPWVPELQGSEHREILGGTG
B27: DOMAIN_26416 (protein, listed as Pelodiscus sinensis)
chain: VVEPVSFEEVAVYFSEEEWALLDPGQRALYWAVMQENYEAVSWLGFSIPKPDLITQLDRGEEPWVPDLQPSKKLEILRGTR
B28: DOMAIN_26373 (protein, listed as Pseudonaja textilis)
chain: FLPQVTFEDVAIYFSREEWDELSEWQRELYQAVMMENYEAVLSLGKNDFIAQCTWGLREGEKRASGKSEKARNRPVSNLWR
B29: DOMAIN_26414 (protein, listed as Pelodiscus sinensis)
chain: FQGPVTFDEVAVYFTKEEWALLDPAQRALYRDVMQENYETVTSLGLPVSRPDVISQMEQGEEPWASALQGSEDRLILRGIC
B30: DOMAIN_26353 (protein, listed as Pelodiscus sinensis)
chain: VEPVSFEEVAVYFSEEEWALLDPGQRALYWDVMQENYEAVSWLVRGRGVSKAHVISWVERGEELWIPDRQGCEEGESISDI
B31: DOMAIN_26417 (protein, listed as Pelodiscus sinensis)
chain: AQVPVTFEEVAVYFTQGQGALLGPAQRALYRDVMRENYEMVTSLGFPVPKPDLVARLERGEEPWVSDCLASEEGGTRRGRG
B32: DOMAIN_26415 (protein, listed as Pelodiscus sinensis)
chain: FLMPVTFEEVAVYFTPGQGALLDPAQRALYRDVMQENYETVASLGFSIPKPDLIAQLEQGEEPWVPDLQPSKEMVILRGIC
B33: DOMAIN_1006 (protein)
chain: DSVAFEDVAVNFTQEEWALLDPSQKNLYREVMQETLRNLTSIGKKWNNQYIEDEHQNPKRNLRRLIGERLSESKESHQHGE
modifications: Pan troglodytes
B34: DOMAIN_999 (protein)
chain: CSHRSCREDPGTSESREMDPVAFKDVAVNFTQEEWALLDISQRKLYREVMLETFRNLTSIGKKWKDQNIEFEYQNPRRNFR
modifications: Pan troglodytes
B35: DOMAIN_987 (protein)
chain: MDTVVFEDVVVDFTPEEWALLNPAQRKLYRDVMLETFKHLASVDNEAQLKASGSISQQDTSGEKLSLKQKIEKFTRKNIWA
modifications: Pan troglodytes

The first assay relates to HBEGF locus. Type of assay: cell-based, human. Conditions: fold change in abundance of each repressor domain in the dXR library before vs after diphtheria toxin selection; dXR repression of the HBEGF gene; domains meeting p-value <0.01 and log2(fold change) >2.
Turning to B1, the “Log2 (fold change)” value is 2.4722.

B2: the “Log2 (fold change)” value is recorded as 3.6235.

As to B3, the “Log2 (fold change)” value is given as 3.201.

B4: the “Log2 (fold change)” value is listed as 3.3538.

For the molecule B5, the “Log2 (fold change)” value is given as 3.6292.

With B6, the “Log2 (fold change)” value is 3.0169.

Consider B7, for which the “Log2 (fold change)” value is recorded as 2.452.

Take B8: the “Log2 (fold change)” value is recorded as 2.8182.

With B9, the “Log2 (fold change)” value was determined as 3.1696.

Regarding B10, the “Log2 (fold change)” value was 3.2468.

On to B11, for which the “Log2 (fold change)” value is 2.8783.

Turning to B12, the “Log2 (fold change)” value is listed as 3.4265.

With B13, the “Log2 (fold change)” value worked out at 2.5921.

As for B14, the “Log2 (fold change)” value is listed as 3.1465.

Regarding B15, the “Log2 (fold change)” value is given as 3.021.

In the case of B16, the “Log2 (fold change)” value came to 2.7447.

For B17, the “Log2 (fold change)” value stood at 2.8615.

Turning to B18, the “Log2 (fold change)” value was determined as 3.2848.

Turning to B19, the “Log2 (fold change)” value worked out at 2.6946.

Turning to B20, the “Log2 (fold change)” value is reported as 2.4582.

With B21, the “Log2 (fold change)” value worked out at 2.6033.

For B22, the “Log2 (fold change)” value was found to be 2.6934.

Turning to B23, the “Log2 (fold change)” value came to 2.9278.

Take B24: the “Log2 (fold change)” value is on record as 3.092.

On to B25, for which the “Log2 (fold change)” value is listed as 3.8197.

The same assay, now with this note: high-throughput screen of dXR repression of the HBEGF gene; abundance of each domain in the library before vs after diphtheria toxin selection; listed domains met p-value <0.01 and log2(fold change) >2.
As to B26, the “Log2 (fold change)” value was determined as 3.1704.

As to B27, the “Log2 (fold change)” value was 3.6321.

Take B28: the “Log2 (fold change)” value was 3.3204.

With B29, the “Log2 (fold change)” value came out at 2.9544.

B30: the “Log2 (fold change)” value came out at 3.5785.

As for B31, the “Log2 (fold change)” value was found to be 4.1057.

With B32, the “Log2 (fold change)” value turned out to be 2.5032.

The assay is the same for the next values; noted with them: high-throughput screen of dXR repression of the HBEGF gene; change in abundance of each domain in the library before and after diphtheria toxin selection.
As for B33, the “Log2 (fold change)” value was found to be 3.2119.

In the case of B34, the “Log2 (fold change)” value is 2.7361.

On to B35, for which the “Log2 (fold change)” value came to 2.6881.
